Data published in PMC6262623.
Positions count from the first letter of the chain named. Numbers in names are those of the source. These are yes or no findings as the source states them, for the method shown. Binding seen in cells or lysates may run through a third protein. Some binding calls cover weakened binding; strength is not graded here. For some assays here: Tags and fused reporters may be left off the sequences shown.

Amino acid sequences for entries named in this document (tags omitted).
UniProt Q8BPU7: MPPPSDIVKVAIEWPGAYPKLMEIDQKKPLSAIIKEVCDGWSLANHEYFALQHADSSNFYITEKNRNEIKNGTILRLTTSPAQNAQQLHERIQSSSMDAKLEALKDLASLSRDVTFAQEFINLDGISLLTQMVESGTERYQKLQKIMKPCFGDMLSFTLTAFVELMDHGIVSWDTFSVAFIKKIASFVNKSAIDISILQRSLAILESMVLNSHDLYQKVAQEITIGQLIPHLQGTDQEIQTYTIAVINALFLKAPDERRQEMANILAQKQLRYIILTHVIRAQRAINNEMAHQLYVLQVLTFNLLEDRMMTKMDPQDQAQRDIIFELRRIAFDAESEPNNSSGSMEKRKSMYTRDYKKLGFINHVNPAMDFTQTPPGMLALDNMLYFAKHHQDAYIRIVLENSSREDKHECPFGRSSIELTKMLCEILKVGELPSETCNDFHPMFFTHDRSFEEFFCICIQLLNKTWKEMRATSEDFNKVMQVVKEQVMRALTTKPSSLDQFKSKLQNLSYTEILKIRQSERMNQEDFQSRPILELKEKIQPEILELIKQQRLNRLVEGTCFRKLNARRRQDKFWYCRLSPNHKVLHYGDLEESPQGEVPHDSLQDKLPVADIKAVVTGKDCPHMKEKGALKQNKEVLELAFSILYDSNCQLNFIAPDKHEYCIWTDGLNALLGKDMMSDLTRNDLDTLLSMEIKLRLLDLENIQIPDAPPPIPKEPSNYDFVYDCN

T1: FLAG-tagged Ephexin4^P271A (murine) (UniProt Q3U5C8)
T1 sequence: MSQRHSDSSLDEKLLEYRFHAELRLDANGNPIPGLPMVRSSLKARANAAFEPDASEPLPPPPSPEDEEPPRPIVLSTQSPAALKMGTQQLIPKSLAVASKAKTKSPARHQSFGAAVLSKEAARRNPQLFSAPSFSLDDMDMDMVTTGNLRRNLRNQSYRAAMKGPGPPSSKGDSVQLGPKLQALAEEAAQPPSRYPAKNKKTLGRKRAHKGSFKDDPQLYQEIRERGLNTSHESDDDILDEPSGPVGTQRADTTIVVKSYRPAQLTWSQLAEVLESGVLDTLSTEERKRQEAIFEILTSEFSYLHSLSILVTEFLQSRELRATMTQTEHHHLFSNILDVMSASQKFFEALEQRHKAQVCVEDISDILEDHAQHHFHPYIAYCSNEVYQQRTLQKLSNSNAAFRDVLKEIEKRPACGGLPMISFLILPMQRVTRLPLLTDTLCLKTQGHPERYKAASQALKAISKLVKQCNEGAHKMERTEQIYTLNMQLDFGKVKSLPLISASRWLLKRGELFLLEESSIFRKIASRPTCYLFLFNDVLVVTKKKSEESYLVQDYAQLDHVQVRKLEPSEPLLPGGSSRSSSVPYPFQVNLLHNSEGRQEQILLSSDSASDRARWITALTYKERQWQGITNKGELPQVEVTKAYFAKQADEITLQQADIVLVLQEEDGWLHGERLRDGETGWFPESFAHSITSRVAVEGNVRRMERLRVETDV

T2: Ephexin4 amino acids 280–628 with the E295A mutation (murine) (UniProt Q3U5C8)
T2 sequence: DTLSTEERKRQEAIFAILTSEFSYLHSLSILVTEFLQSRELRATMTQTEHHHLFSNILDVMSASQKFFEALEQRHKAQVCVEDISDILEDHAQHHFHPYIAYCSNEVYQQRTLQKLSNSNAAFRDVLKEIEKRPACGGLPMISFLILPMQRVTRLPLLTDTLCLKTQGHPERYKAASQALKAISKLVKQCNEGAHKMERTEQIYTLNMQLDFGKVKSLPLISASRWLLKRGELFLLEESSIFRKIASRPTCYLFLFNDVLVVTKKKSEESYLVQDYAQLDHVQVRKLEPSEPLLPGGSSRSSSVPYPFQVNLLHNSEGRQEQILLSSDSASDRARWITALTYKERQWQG

T3: Ephexin4 amino acids 280–628 (murine) (UniProt Q3U5C8)
T3 sequence: T2 sequence with A16E

B1: GFP-tagged wild-type Ephexin4 (protein, UniProt Q3U5C8 1-713)
chain: T1 sequence with A271P
B2: GFP-tagged Ephexin4^P271A (protein, UniProt Q3U5C8 1-713)
chain: T1 sequence
B3: wild-type Ephexin4 (tag not told for the experiment) (protein, UniProt Q3U5C8 1-713)
chain: T1 sequence with A271P
B4: SH3 domain of Ephexin4 (domain or fragment, UniProt Q3U5C8 633-693)
chain: GELPQVEVTKAYFAKQADEITLQQADIVLVLQEEDGWLHGERLRDGETGWFPESFAHSITS
B5: GFP-tagged Ephexin4^E295A (protein, UniProt Q3U5C8 1-713)
chain: T1 sequence with A271P, E295A
B6: Ephexin4^E295A (tag not told for the experiment) (protein, UniProt Q3U5C8 1-713)
chain: T1 sequence with A271P, E295A

Legend:
[1] = biological target: FLAG-tagged wild-type Ephexin4 (murine) (UniProt Q3U5C8); experiment: co-IP; 293T cells co-transfected, lysed after 2 days (50 mM Tris pH 7.6, 150 mM NaCl, 1% Triton X-100); lysates incubated with FLAG-conjugated agarose beads 2 h at 4 °C, five washes, immunoblotting
[2] = biological target: T1, FLAG-tagged Ephexin4^P271A (murine); experiment: as above
[3] = biological target: FLAG-tagged Ephexin4^E295A (murine) (UniProt Q3U5C8); experiment: as above
[4] = biological target: full-length Elmo1 (UniProt Q8BPU7); experiment: as above
[5] = biological target: wild-type Ephexin4 (tag not told for the experiment) (murine) (UniProt Q3U5C8); experiment: cross-linking; 293T cells transfected, resuspended in PBS pH 8.0, 0.1 mM DSS (or DMSO) 30 min at room temperature, stopped with 20 mM Tris, lysed, immunoblotting
[6] = biological target: T2, Ephexin4 amino acids 280–628 with the E295A mutation (murine); experiment: co-IP; 293T cells co-transfected, lysed after 2 days (50 mM Tris pH 7.6, 150 mM NaCl, 1% Triton X-100); lysates incubated with FLAG-conjugated agarose beads 2 h at 4 °C, five washes, immunoblotting
[7] = biological target: T3, Ephexin4 amino acids 280–628 (murine); experiment: as above
[8] = biological target: Ephexin4^E295A (tag not told for the experiment) (murine) (UniProt Q3U5C8); experiment: cross-linking; 293T cells transfected, resuspended in PBS pH 8.0, 0.1 mM DSS (or DMSO) 30 min at room temperature, stopped with 20 mM Tris, lysed, immunoblotting

| Binder | binding [2] | binding [3] | binding [4] | other results |
| --- | --- | --- | --- | --- |
| B1 | binds | no binding | – | binding [1]: binds |
| B2 | binds | – | – | – |
| B3 | – | – | binds | binding [5]: binds |
| B4 | – | – | – | binding [6]: no binding; binding [7]: binds |
| B5 | – | no binding | – | – |
| B6 | – | – | no binding | binding [8]: no binding |
